Source: PMC12136788
Some of the results follow.

B1: chr2:198351390:198351391:-_ENSG00000144381_ENST00000345042|hu_hu|hu_hu_hu_mus_False|48_78 (ssRNA)
RNA: GGGAGUUCUACAGUCCGACGAUCUCAUUCCCACCCUCCACAGAAAGGCUGCUUCUGUUCUCAUCUGUGGUGACACAGCGCUACAGUCCUGAUUUUAACAGAACAGUAGAGAUGCCUCAGUGAUUUAAGUUGAAAGCAGGACACCAACAGAGGAUUGAGCAUCA
B2: chr1:168153195:168153196:+_ENSG00000143155_ENST00000367833|hu_mus|FALSE|FALSE (ssRNA)
RNA: GGGAGUUCUACAGUCCGACGAUCUAGAACGUUGUCUCCAAACAUCAUUUCAGGGAGGGAUGGCAUGUGCAGCUCGUCAGCUAACUUUUCCACAUCCGCAGACUUCAUGAUGUGGGUCUUGGACGCCGUCAGCUUCCAAGGCCCCAACAGAGGAUUGAGCAUCA
B3: chr7:141450121:141450122:+_ENSG00000106028_ENST00000265304|hu_mus|hu_hu_hu_mus_True|8_8 (ssRNA)
RNA: GGGAGUUCUACAGUCCGACGAUCUCAUCCGUUCUAUGCCUUUUCUUUUGUCUGGUCACUCAGAAAUAUAAUGUUAUCAGCUAUGAUUGUUGUUGCUUGCCGCCUCACAUUGUUUUUAUCCAUGUACUCACCAUAGUCCACUUUCAACAGAGGAUUGAGCAUCA
B4: chr5:146773622:146773623:-_ENSG00000113657_ENST00000343218|hu_hu|FALSE|FALSE (ssRNA)
RNA: GGGAGUUCUACAGUCCGACGAUCCUUCUGCCCCUCUCUUUGAGGAAGGCUUGCUUAACUCAGAGAUGUGAUAUUAGAACGGCCGCCUGGGGGCGCCACGAUGCGCUUGCUGGCUGAGCGAACCCCCUCAUCCACUUGGGUGCCCAACAGAGGAUUGAGCAUCA
B5: chr13:103053924:103053925:-_ENSG00000102466_ENST00000376131|hu_hu|FALSE|FALSE (ssRNA)
RNA: GGGAGUUCUACAGUCCGACGAUCCAUAUGCGUUCCUUUGCUGAAAAUGUUCCAAAGAAACCACAUUGAUUUGGGCGAAAAGCAAUCCAGCAGCUUAGACACCCUGAGAAAGAAGAGAUCCUUGUGGUUGCAUAAUAAUAAUUUCAACAGAGGAUUGAGCAUCA
B6: chr7:34935884:34935885:-_ENSMUSG00000052997_ENSMUST00000102746|mus_hu|FALSE|FALSE (ssRNA)
RNA: GGGAGUUCUACAGUCCGACGAUCUAAAAUCUUCAAUCCUUCCAAUACUAUCAACCCAGCAAUUACUGCAUUAGUAGUAGCAAUAGCAGGAAUAAUGUUCCCUGCCAUUGAUUUGAUAUCAAAUCUACUCUUCAUAUUCAUACUCAACAGAGGAUUGAGCAUCA
B7: chr8:42417948:42417949:+_ENSMUSG00000031592_ENSMUST00000045218|mus_mus|FALSE|FALSE (ssRNA)
RNA: GGGAGUUCUACAGUCCGACGAUCUUCUAGUUACUAACAAUGUCUGAACUGUGUAUACAGUCUGAGUUAUUAACAUGUUCUAAGACCACUGAGAUUCAUCUGCUUUAUUCGCACACAAGAGCAGGAACUACAAGAACAUCAGACCAACAGAGGAUUGAGCAUCA
B8: 54640594_54640714_1659_3pUTR_ENSMUSG00000031134_ENSMUST00000098470|mouse|control|control (ssRNA)
RNA: GGGAGUUCUACAGUCCGACGAUCAUGGCAACACUAUAAAUUGUAUAUAUACAACAUUUAAAUCUGAAUUUACAGAAUUCUUUGUAUUAAAAGUUCACUUUCUCAACUGGGAAGUUUUAAACUCUACCAUUGCUGGCCAUAAGACAACAGAGGAUUGAGCAUCA
B9: chr5:134670393:134670394:-_ENSG00000113648_ENST00000304332|hu_hu|motif|central (ssRNA)
RNA: GGGAGUUCUACAGUCCGACGAUCUAAAAGACGCUGUUCUCCCCACUGCUGUGCGUCAAUCAGGGUUUCAUUAAAAUAAAACGGUAAAAUCUCCUAGGUUACACUAAGUCAGACACGGUCUGGAACACAGUGCUUAACAACAGUCAACAGAGGAUUGAGCAUCA
B10: 105363258_105363378_1933_CDS_ENSG00000107957_ENST00000369774|human|control|control (ssRNA)
RNA: GGGAGUUCUACAGUCCGACGAUCGCUCAGCUCAGGCUCUGAGUCAAAGCCGAAUGCAGGGAUGUCAUACUCAGGCUCCUCAUACUUGAGCUUCCGCGGGGAGUCCUGGCUCUCACUGGCCCCCGUAGGGCCCUCCUCGGCCUCCAACAGAGGAUUGAGCAUCA
B11: chr1:33855670:33855671:-_ENSMUSG00000042197_ENSMUST00000044455|mus_mus|FALSE|FALSE (ssRNA)
RNA: GGGAGUUCUACAGUCCGACGAUCAUUAAGAAGGAGUACAUUUAAAUAGUGCAAUUGUACAGGUGAUAAAGGUAACAAACUAAGAGUAAAUCACUGUACAAACGUUACAUAAAUACCACAUCAAAGGCUAGGUCUUAAACGUAACAACAGAGGAUUGAGCAUCA
B12: 10704985_10707675_999_CDS_ENSG00000111845_ENST00000379568|human|control|control (ssRNA)
RNA: GGGAGUUCUACAGUCCGACGAUCAAUUUCAAAACUGAACAUGUCCUUUACCCUGUUUUCAUGAGCUUUAAAUUCGCAGAGGCACACUAGUGAAUCACAGUCAAAAAACCUUAUAACUUCUUCAUCUCCAGCCACUGCAAGGACCAACAGAGGAUUGAGCAUCA
B13: chr7:149068622:149068623:-_ENSMUSG00000025139_ENSMUST00000001950|mus_hu|mus_mus_mus_hu_False|48_78 (ssRNA)
RNA: GGGAGUUCUACAGUCCGACGAUCGUGAGGCCUCUGAGUGUGGCUUGUGGUCUGUCCUGUCUGCAGUUUGUUAAUAUCACGGAACAUACCACUUAAGACGUUCCAGUCCCGCCUGACACCUUCAUUCCCAAUGGAGAAGAAAUCCAACAGAGGAUUGAGCAUCA
B14: chr7:129668796:129668797:-_ENSG00000091732_ENST00000358303|hu_hu|FALSE|FALSE (ssRNA)
RNA: GGGAGUUCUACAGUCCGACGAUCGGAAGGAAGCUGGAGGUCCAAGUGACAAAGGCUUUGAAAACGAUCUAGGAAUUCACUAACAAGAAUAGCAGGCUCAUCCAGGGGCAACAUCCCAAAUCGGUCUGGGGAUGGGCUGUCUGGCAACAGAGGAUUGAGCAUCA

The binders below were run against T1, UNK ZnF1-3 (human, UniProt Q9C0B0 31-174) (assay: nsRBNS (natural sequence RNA bind-n-seq); RBNS binding buffer (assumed for nsRBNS): 25 mM Tris pH 7.5, 150 mM KCl, 3 mM MgCl2, 0.01% Triton X-100, 500 ug/ml BSA, 20 U/ml SUPERase-In, 4 C; UNK is unkempt and MSI1 is Musashi-1; names of the RNAs are library labels; protein concentration not given here; high values mean tight binding).
T1 sequence: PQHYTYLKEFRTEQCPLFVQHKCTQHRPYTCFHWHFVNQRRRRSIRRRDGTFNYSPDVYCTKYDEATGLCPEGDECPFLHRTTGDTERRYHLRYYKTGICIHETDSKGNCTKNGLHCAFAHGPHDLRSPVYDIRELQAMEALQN

Row | Binder | binding signal [enrichment R]
1 | B1 | 1.16
2 | B2 | 0.866
3 | B3 | 0.437
4 | B4 | 0.797
5 | B5 | 1.33
6 | B6 | 0.693
7 | B7 | 1.15
8 | B8 | 0.719
9 | B9 | 1.13
10 | B10 | 0.948
11 | B11 | 0.528
12 | B12 | 1.47
13 | B13 | 0.627
14 | B14 | 1.53
